Reference: PubChem BioAssay AID1346428 (National Center for Advancing Translational Sciences (NCATS), 2018)
Values joined by “and” are separate entries in the source; they are usually repeats but may differ in a detail not shown here. Equal entries are not always repeated. Screen size: about 48,000 compounds; about 1,200 (2.5%) were called active. About 2% were inconclusive and are not listed.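 Rule for the calls: active = activation of at least 60% and not above a set upper limit (about 1 call in 100 departs from these limits); inconclusive = activation of 40% to 60%, or above that upper limit; inactive = activation under 40%.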 The list shows a part of the results.

Target: Probable G-protein coupled receptor 32 (Homo sapiens) (UniProt O75388)
Experiment: qHTS for Agonists of Human Resolvin D1 Receptor DRV1; note: 0% is about no effect
Details: CHO-K1 GPR32 beta-arrestin PathHunter luminescence, 90 min; at 76.9 µM; active compounds read high; zero percent set by DMSO-only wells
Method in brief: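 CHO-K1 cells stably expressing ProLink-tagged GPR32 and Enzyme Activator-tagged beta-arrestin were seeded at 2,500 cells/well overnight, exposed to compounds for 90 min at 37 °C, then read by beta-Gal complementation chemiluminescence after 1 h detection reagent.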

UniProt O75388, sequence (O75388 whole entry, looked up): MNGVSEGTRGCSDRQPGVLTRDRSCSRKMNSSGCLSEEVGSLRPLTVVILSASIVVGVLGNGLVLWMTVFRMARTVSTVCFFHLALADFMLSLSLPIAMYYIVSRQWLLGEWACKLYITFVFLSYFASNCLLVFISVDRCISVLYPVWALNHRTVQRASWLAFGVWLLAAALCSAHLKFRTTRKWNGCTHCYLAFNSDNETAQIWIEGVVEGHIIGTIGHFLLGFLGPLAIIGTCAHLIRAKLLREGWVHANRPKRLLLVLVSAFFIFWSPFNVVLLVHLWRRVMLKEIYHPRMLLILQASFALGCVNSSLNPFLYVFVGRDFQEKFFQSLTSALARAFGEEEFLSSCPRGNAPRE

| Structure (SMILES) | activation |
| --- | --- |
| CO/N=C(\C(=O)N[C@@H]1C(=O)N2C(C(=O)O)=C(CSc3nc(=O)c(O)nn3C)CS[C@H]12)c1csc(N)n1 | inactive: 43.9% |
| Cc1cccc(NC(=O)c2sc3nc4n(c(=O)c3c2C)N=C(c2ccc(F)cc2)CS4)c1C | inactive: -9.91% |
| Cc1ccc(C)c(N2CCN(c3nc4ccccc4c4nc(CCn5nc(C)cc5C)nn34)CC2)c1 | inactive: 27.3% |
| COc1ccc(C(=O)O)cc1Nc1nc2ccc(C)cc2n2cnnc12 | inactive: -9.75% |
| NC(=O)CC[C@@H](N)C(=O)O | inactive: -3.87% |
| COc1ccc(Cl)cc1NC(=O)c1cc2nc(-c3ccc4c(c3)OCO4)cc(C(F)(F)F)n2n1 | inactive: -13.7% |
| COC(=O)Cn1c(=O)c2c(nc3n2CCN3c2cccc(C)c2)n(C)c1=O | inactive: 1.15% |
| CCCCc1ccc(NC(=O)c2cc3c(=O)n4ccccc4nc3n2C)cc1 | inactive: 8.89% |
| COc1ccc(NC(=O)CCCc2nc(-c3ccco3)no2)c(OC)c1 | inactive: -18.7% |
| COc1ccc2nc3sc(C(=O)Nc4ccccc4F)cc3cc2c1 | inactive: 42.8% |
| CCN(CC)S(=O)(=O)c1ccc(NC(=O)[C@H](CSCc2ccccc2)N2Cc3ccccc3C2=O)cc1 | inactive: -17.8% |
| Cc1ccc(CN2C(=O)c3ccccc3C2C(=O)NC2CCCCCC2)cc1 (configuration not stated) | inactive: 8.33% |
| Cc1ccc(NC(=O)c2sc3ccccc3c2Cl)cc1 | inactive: 17.6% |
| CCOc1ccccc1NC(=O)c1c(C)cc(C)nc1SCC(=O)c1cccc(OC)c1 | inactive: -24.6% |
| Cc1cc(Nc2cccc(C(F)(F)F)c2)nc2ccc(NC(=O)c3ccc(N(C)C)cc3)cc12 | inactive: -5.2% |
| Cc1cc(O)c(C(c2ccc(F)cc2)N2CCCCC2)c(=O)n1Cc1ccco1 (configuration not stated) | inactive: -13.4% |
| CCc1ccc(-n2nc(C)c3c(C(=O)Nc4cccc(C(F)(F)F)c4)cc(C)nc32)cc1 | inactive: 12.9% |
| O=C(Nc1cccc(C(=O)N2CCCCC2)c1)c1nsc2ccccc12 | inactive: 5.44% |
| COc1ccc(CNC(=O)CCn2nc(C)c3c(C)n(-c4ccccc4)nc3c2=O)cc1OC | inactive: -8.79% |
| Cc1ccc(NC(=O)CCCn2nc(C)c3c(C)n(-c4ccccc4)nc3c2=O)cc1Cl | inactive: -6.88% |
| O=C(CN1CCN(c2ccc(Cl)cc2)CC1)Nc1ccc(F)cc1F | inactive: -19.8% |
| Cc1cccn2c(=O)c(/C=C(\C#N)c3nc4ccccc4n3C)c(Oc3ccc(Br)cc3)nc12 | inactive: -13.3% |
| CN1C(=O)c2ccccc2Sc2ccc(NC(=O)Nc3ccccc3F)cc21 | inactive: -12.7% |
| CCOc1ccc(N(CC(=O)Nc2ccc(F)cc2F)S(=O)(=O)c2c(C)[nH]c(=O)[nH]c2=O)cc1 | inactive: -5.7% |
| COc1ccc(CN(CCC(c2ccc3c(c2)OCO3)c2ccccc2OC)C(C)=O)cc1 (configuration not stated) | inactive: -26% |
| CCOCCCn1c(=N)c(S(=O)(=O)c2ccc(C)cc2)cc2c(=O)n3cccc(C)c3nc21 | inactive: 19.7% |

| Structure (SMILES) | activation |
| --- | --- |
| COc1ccc(CNC(=O)C(=O)NCC(c2cccs2)S(=O)(=O)c2ccc(F)cc2)cc1 (configuration not stated) | inactive: -0.617% |
| CC(=O)N1CCCc2cc(S(=O)(=O)N(C)CC(=O)Nc3ccc(F)cc3Cl)ccc21 | inactive: 8.34% |
| CCCCOC(=O)NS(=O)(=O)c1sc(CC(C)C)cc1-c1ccc(Cn2c(CC)nc3c(C)cc(C)nc32)cc1 | inactive: -25.1% |
| CCc1nn(CC(=O)NC(C)C)c(=O)c2cc3cc(F)ccc3n12 | inactive: -10.8% |
| CCOC(=O)c1ccc(OCC2c3cc(OC)c(OC)cc3CCN2C(=O)Cc2ccc(F)cc2)cc1 (configuration not stated) | inactive: -3.68% |
| O=C(NCC(c1ccc2c(c1)OCO2)N1CCN(c2ccccc2)CC1)c1ccccc1F (configuration not stated) | inactive: -19.7% |
| Cc1ccc(NC(=O)c2c(Nc3ccccc3C)sc(C(=O)c3ccccc3)c2N)cc1 | inactive: -78.2% |
| Cc1ccc(NC(=O)Cn2c(=O)n(Cc3ccccc3)c(=O)c3c(C)c(C)sc32)c(C)c1 | inactive: 21.3% |
| CC1CCCN(c2csc3ccc(F)cc3c2=O)C1 (configuration not stated) | inactive: 3.42% |
| COc1ccc(OC(=O)c2nc(SCc3ccc(C)cc3)ncc2Cl)cc1 | inactive: -21% |
| CCOC(=O)c1ccc(-n2c(N)c(C(=O)OC)c3nc4ccccc4nc32)cc1 | inactive: -21.3% |
| CCc1ccccc1NC(=O)C1=CC(c2ccc(OC)c(OC)c2)=NS(=O)(=O)N1C | inactive: -1.75% |
| Cc1cccc(C)c1OCC(=O)NCC1(N2CCOCC2)CCCCC1 | inactive: -33.6% |
| Cc1ccc(-c2nc(C)c(CCNC(=O)C(=O)Nc3ccc4c(c3)OCCO4)s2)cc1 | inactive: 27.4% |
| CCCOc1ccc(C(=O)Nc2cccc(-c3nc4ccccc4[nH]3)c2)cc1 | active: 82.5% |
| O=C(CN1C(=O)COc2ccc(S(=O)(=O)N3CCCCC3)cc21)NCc1ccc(F)cc1 | inactive: -13.5% |
| CCc1ccc(-c2nn(CC(=O)NC3CCCC3)c3c2cnc2ccc(C)cc23)cc1 | inactive: 37% |
| CC1(C)O[C@H]2[C@@H](O1)[C@@H](C(=O)Nc1ccccc1O)O[C@@H]1OC(C)(C)O[C@@H]12 | inactive: -21.9% |
| O=C(Nc1ccc(N2CCC(N3CCCCC3)CC2)c(C(=O)O)c1)c1ccc(Br)cc1 | inactive: 3.3% |
| CCOc1cc(C2C(C(=O)OC)=C(C)NC3=C2C(=O)c2ccccc23)ccc1O (configuration not stated) | inactive: -62.3% |
| COc1ccc(-n2nc3ccc(NC(=O)c4cc5ccccc5o4)cc3n2)cc1Cl | inactive: -19.7% |
| CCOc1ccc(CNC(=O)C2CCCN(c3nc4c(C)cc(C)cc4s3)C2)cc1 (configuration not stated) | inactive: 1.27% |
| COc1ccccc1-c1nc(S(=O)(=O)c2ccc(Cl)cc2)c(N2CCCCCC2)o1 | inactive: -9.55% |
| CCC(CC)C(=O)Nc1cccc(-c2nc3cccnc3s2)c1C | inactive: -14.6% |
| FC(F)(F)c1ccccc1-n1ccnc1 | inactive: -8.4% and inactive: -8.61% |
| Cc1cccc(/C=C/c2onc(C)c2S(=O)(=O)N2CCC(C(=O)N3CCC(C)CC3)CC2)c1 | inactive: -11.3% |
